In PMC10668032:
The other results are listed elsewhere or left out. At the low end of the ranking the order means little.

Target: SIX1-Q177R homeodomain (UniProt Q15475)
Assay: universal protein binding microarray
Details: Universal all-10-mer PBM (8x60K, AMADID 030236), 300 nM GST-tagged protein, Alexa Fluor 488 anti-GST; buffer, salt, pH and temperature not stated; high values mean tight binding; most listed sequences are background and not binding sites; double strand, one strand shown

| Sequence | binding signal [E-score] |
| --- | --- |
| CATGAAAA | -0.0754 |
| ACAAAATA | -0.0687 |
| ATTGAAAT | -0.309 |
| CACCACGA | 0.28 |
| GCGTAAGC | -0.0522 |
| CTCCCCCA | 0.176 |
| AAATCGGC | -0.223 |
| AGCGGTAT | 0.0516 |
| GCGTGAAC | 0.0454 |
| GGTTAGCA | 0.0241 |
| ACAAATGT | -0.192 |
| GCACATAA | -0.175 |
| CAAATCCG | -0.214 |
| CGCGTCCG | 0.072 |
| CATCACAC | 0.317 |
| AGCGTTCG | -0.0283 |
| AGCCTCGA | -0.0475 |
| TCGGATCA | 0.0443 |
| GAATCTAC | -0.0922 |
| ATTTAAGC | -0.224 |
| GGTTTGAA | 0.0446 |
| AGTTACAG | -0.118 |
| TCACTGAA | -0.137 |
| GGAGCCCA | -0.16 |
| ATTGCCAA | -0.199 |

| Sequence | binding signal [E-score] |
| --- | --- |
| GTGGCCTA | -0.146 |
| CATGTGCA | 0.007 |
| ATAAGCCA | -0.163 |
| CAGAAATA | -0.0113 |
| AAGGGATG | -0.167 |
| CGTAAGAG | -0.0443 |
| AACATATG | -0.133 |
| CGCGAGCA | -0.00612 |
| CGGTGTCA | 0.492 |
| CCTTATCG | -0.0802 |
| GAGCAACC | -0.137 |
| AGTGAACG | -0.21 |
| ACGCACGG | 0.117 |
| CGGTTTCC | -0.0637 |
| TACATTGA | -0.11 |
| CGGCTAGA | -0.0594 |
| GAAGGGAA | -0.242 |
| AGTTCAGA | -0.021 |
| ACGTAGCT | -0.154 |
| CGAGGGAG | 0.0712 |
| TATCCCGA | 0.0694 |
| ACAAGGAA | -0.161 |
| ACCCTCAG | 0.121 |
| CTGCAAAC | -0.214 |
| CCCGGACA | 0.233 |

| Sequence | binding signal [E-score] |
| --- | --- |
| AAGGTGTC | 0.471 |
| ATCCGCTC | 0.068 |
| AATAGGGG | 0.171 |
| CCGGGGGA | 0.137 |
| ATGATGGG | -0.0686 |
| AGAACAGC | -0.289 |
| GCTGCAGC | -0.137 |
| CTTGTTAC | -0.0992 |
| ACCCTTTA | 0.119 |
| ACCTGGGG | 0.21 |
| CGATCAAA | -0.234 |
| ATATGCTC | -0.244 |
| AGGGAGGG | 0.142 |
| ACAACCGG | -0.0624 |
| CAAATACG | -0.143 |
| AAGCTCGC | -0.12 |
| GCAAACAC | 0.351 |
| CACTCTCG | 0.288 |
| AAGATGAA | 0.0107 |
| ACAGGGCC | -0.298 |
| GCATCGAA | -0.00262 |
| GATTACTA | -0.105 |
| CCGTCCAC | 0.00352 |
| AGAGAGAG | -0.0365 |
| AACCCCTA | 0.157 |

| Sequence | binding signal [E-score] |
| --- | --- |
| CGACAGAA | -0.0545 |
| TCCGGAAA | -0.132 |
| ATTTCATG | -0.27 |
| CTTTGGGC | -0.104 |
| CTACAGAC | -0.222 |
| TGAGTAAA | -0.0513 |
| CTCTTCTC | -0.163 |
| ACCGGACA | 0.245 |
| ACAGAGTC | 0.0365 |
| GAAGCCCC | -0.166 |
| GTATTCCA | 0.00732 |
| ATGACCAG | -0.167 |
| CCCGATAA | 0.0899 |
| AACCTCAA | -0.0335 |
| GATGAGGA | -0.0261 |
| ATAGGCTC | -0.225 |
| CGAATATA | -0.0667 |
| GCGCAAGC | -0.0247 |
| GAGTGCCC | -0.024 |
| CGTGAACC | 0.17 |
| ACGTACAC | 0.436 |
| AATTTTAA | -0.191 |
| CCGCTTCC | -0.189 |
| ATGCAAGG | -0.252 |
| TAACGTTA | -0.191 |

| Sequence | binding signal [E-score] |
| --- | --- |
| CATAGGCG | -0.0895 |
| TCCATGAA | -0.0712 |
| AGTGGCAC | 0.0681 |
| ACAACCAG | 0.0624 |
| TAGCTTAA | -0.25 |
| GCTGTACC | 0.00878 |
| AGACACAC | 0.316 |
| ATCGCAAT | -0.195 |
| AATGTAGA | -0.21 |
| AGCACAGA | 0.00244 |
| GTGCGAAA | -0.013 |
| TAAAATGA | -0.151 |
| ACCGCCCT | 0.113 |
| AGCCTGAT | -0.129 |
| ATAGCTAT | -0.293 |
| CAAGGAGG | 0.0012 |
| GCGAAGCA | -0.19 |
| ACTCGATC | 0.0238 |
| AGAACATA | -0.0962 |
| AACCGAGG | -0.147 |
| AACCAAAT | -0.0361 |
| CACGTAGG | 0.0637 |
| ACCCGGTC | 0.0193 |
| CGATAATA | 0.0968 |
| CATGCGGC | -0.145 |

| Sequence | binding signal [E-score] |
| --- | --- |
| ACTGGATA | 0.103 |
| ATGCCCAC | -0.195 |
| GTCTCATA | 0.179 |
| GACGCATC | -0.115 |
| CAAGTGGG | 0.103 |
| CCCATTAG | -0.145 |
| GTCCAAAA | -0.0889 |
| CAATTATC | -0.145 |
| CAGGCCCG | -0.0999 |
| AAGTTAAA | -0.0614 |
| CACTAGAC | 0.163 |
| CTCAGTTC | -0.243 |
| GAGTCGGA | -0.0488 |
| ACTATATG | -0.247 |
| CGCGTTTA | -0.0709 |
| ATTACTCC | 0.287 |
| AGTGGGAC | 0.153 |
| ATGCCAGC | -0.102 |
| CAGCGCTC | -0.389 |
| GTATTCAC | 0.0614 |
| CATGATAA | -0.244 |
| AACGGTGT | 0.467 |
| CTGGCCTA | -0.192 |
| AGCCTTTC | -0.341 |
| CTTAGAGA | -0.127 |

| Sequence | binding signal [E-score] |
| --- | --- |
| CAGGCAGC | -0.0424 |
| AACTTGAA | -0.0716 |
| CCCAGGAG | -0.00178 |
| ACATTGGA | 0.0449 |
| ACTTTTGG | 0.00594 |
| ACCATATG | 0.0129 |
| GTTATGCA | 0.0373 |
| ACCAAAGT | -0.00033 |
| CGGTTGTC | -0.0171 |
| ATACATAA | -0.118 |
| CTCATGGA | -0.0207 |
| GCCCTGAC | 0.114 |
| GGAGCTTA | 0.0998 |
| ACTGCTGA | -0.00435 |
| ATTCCAAT | -0.135 |
| ACGAGGCC | -0.201 |
| CAAGATGC | 0.0677 |
| ACAAGGTG | 0.264 |
| AAGACACT | 0.374 |
| GGTGAGCA | -0.0354 |
| AAGTGTGC | 0.125 |
| ACTGTGTG | 0.177 |
